76 compounds from the supplement of paper PMC6135742 can be followed below.

Each structure is given as a SMILES string. Several values for one entry are separate records, joined by “and”; a condition that tells them apart may be missing. Equal entries are not always repeated. Structures can show the parent of a compound that is named as a salt. ± gives the standard deviation of the averaged measurements. Over roughly 2,600 compounds, “MBP+ mature oligodendrocyte number relative to DMSO vehicle control” has its median near -0.34; the highest 2% begin near 13. Some of the results follow.
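Further: 10 µM single dose with 3-day oligodendrocyte differentiation.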

This assay has as its system jimpy (Plp1 jimpy) mouse iPSC-derived oligodendrocyte progenitor cells. As to the kind of experiment: MBP+ mature oligodendrocyte number relative to DMSO vehicle control (SDs above negative control mean); higher = more surviving jimpy oligodendrocytes (rescue). The following applies: 10 µM; 3 days.
Turning to `O=C(NCCO)c1cccc(-c2cc(Nc3ccc(OC(F)(F)F)cc3)ncn2)c1`, the “MBP+ mature oligodendrocyte number” value is -0.394.

Regarding `Nc1ncnc2c1c(-c1ccc(Oc3ccccc3)cc1)cn2C1CCCC1`, the “MBP+ mature oligodendrocyte number” value was -0.91.

Take `O=c1[nH]c(=O)n(C2CCCO2)cc1F` (stereo unspecified) [Tegafur]: the “MBP+ mature oligodendrocyte number” value is less than -3.85.

Regarding `Cc1cc2c(F)c(Oc3ncnn4cc(OC[C@@H](C)OC(=O)[C@H](C)N)c(C)c34)ccc2[nH]1`, the “MBP+ mature oligodendrocyte number” value was -1.9.

For `CCOC(=O)Nc1cc(-c2ccc(C)c(NS(C)(=O)=O)c2)nn2c(C)nnc12` [Bromosporine], the “MBP+ mature oligodendrocyte number” value was -6.01.

On to `Nc1nc2ccc(Cl)cc2c2nc(-c3ccco3)nn12`, for which the “MBP+ mature oligodendrocyte number” value is 2.65.

With `CCC(C)N(C)C(=O)c1cc2ccccc2c(-c2ccccc2Cl)n1` (stereo unspecified), the “MBP+ mature oligodendrocyte number” value was -0.236.

Turning to `Nc1nc2c(nc(Br)n2C2OC3COP(=O)(O)O[C@@H]3C2O)c(=O)[nH]1` (stereo partly specified) [8-Bromo-cGMP sodium], the “MBP+ mature oligodendrocyte number” value is -1.81.

Consider `Nc1nc2n[nH]nc2c(=O)[nH]1` [Azaguanine-8], for which the “MBP+ mature oligodendrocyte number” value is 2.94.

For `N[C@H](C(=O)O)[C@H](O)c1ccc(O)c(O)c1`, the “MBP+ mature oligodendrocyte number” value was found to be 0.108.

As for `CN(C)c1nc(N(C)C)nc(N(C)C)n1` [Altretamine], the “MBP+ mature oligodendrocyte number” value was 0.885 ± 0.75.

`COc1cc2c(cc1-c1c(C)noc1C)ncc1[nH]c(=O)n([C@H](C)c3ccccn3)c12`: the “MBP+ mature oligodendrocyte number” value was less than -6.01.

On to `COc1cc2c(Oc3ccc4[nH]c(C)cc4c3F)ncnc2cc1OCCCN1CCCC1` [Cediranib (AZD2171)], for which the “MBP+ mature oligodendrocyte number” value is less than -6.7.

As to `CC(=O)O[C@]1(C(C)=O)CC[C@H]2[C@@H]3C[C@H](C)C4=CC(=O)CC[C@]4(C)[C@H]3CC[C@@]21C` [Medroxyprogesterone acetate], the “MBP+ mature oligodendrocyte number” value was 16.5.

With `O=C(O)c1cc(-c2ccccc2)nc2ccccc12` [Cinchophen], the “MBP+ mature oligodendrocyte number” value is 2.43.

On to `C[C@H]1C[C@@H]2[C@H]([C@@H](O)C[C@@]3(C)[C@H]2CC[C@]3(O)C(=O)CO)[C@@]2(C)C=CC(=O)C=C12` [Methylprednisolone], for which the “MBP+ mature oligodendrocyte number” value came out at 6.01.

On to `NC(=O)C(c1ccccc1)(c1ccccc1)[C@@H]1CCN(CCc2ccc3c(c2)CCO3)C1` [Darifenacin HBr], for which the “MBP+ mature oligodendrocyte number” value was -5.37.

As for `CCCNCC(O)COc1ccccc1C(=O)CCc1ccccc1` (stereo unspecified) [Propafenone HCl], the “MBP+ mature oligodendrocyte number” value is 6.27.

With `CCCNCC(O)COc1ccccc1C(=O)CCc1ccccc1` (stereo unspecified) [Propafenone hydrochloride], the “MBP+ mature oligodendrocyte number” value is 0.578.

As to `O=C1c2ccc(Nc3ccc(F)cc3F)cc2CCc2ccc(OC[C@H](O)CO)cc21` [Skepinone-L], the “MBP+ mature oligodendrocyte number” value was determined as 2.6.

With `COc1cc(/C=C(\C#N)C(=O)Nc2nnc(C(F)(F)F)s2)ccc1OCc1ccc(C(F)(F)F)cc1C(F)(F)F`, the “MBP+ mature oligodendrocyte number” value was 0.182.

With `COc1ccccc1OCC(O)CN1CCN(CC(=O)Nc2c(C)cccc2C)CC1` (stereo unspecified) [Ranolazine dihydrochloride], the “MBP+ mature oligodendrocyte number” value was 0.86.

Turning to `COc1ccccc1OCC(O)CN1CCN(CC(=O)Nc2c(C)cccc2C)CC1` (stereo unspecified) [Ranolazine 2HCl], the “MBP+ mature oligodendrocyte number” value was 4.56.

As for `COc1ccccc1OCC(O)CN1CCN(CC(=O)Nc2c(C)cccc2C)CC1` (stereo unspecified) [Ranolazine], the “MBP+ mature oligodendrocyte number” value turned out to be 6.01.

`O=[N+]([O-])c1cccc2cn[nH]c12` [7-Nitroindazole]: the “MBP+ mature oligodendrocyte number” value was -0.872.

Regarding `COc1cc([C@@H]2c3cc4c(cc3[C@@H](O[C@@H]3O[C@@H]5CO[C@@H](C)O[C@H]5[C@H](O)[C@H]3O)[C@H]3COC(=O)[C@H]23)OCO4)cc(OC)c1O` [Etoposide], the “MBP+ mature oligodendrocyte number” value is -5.58 ± 1.6.

On to `OC[C@H]1O[C@@H](Oc2cc(O)cc(/C=C/c3ccc(O)cc3)c2)[C@H](O)[C@@H](O)[C@@H]1O` [Polydatin], for which the “MBP+ mature oligodendrocyte number” value is -1.45.

Consider `COc1ccc(C2CNC(=O)C2)cc1OC1CCCC1` (stereo unspecified) [Rolipram], for which the “MBP+ mature oligodendrocyte number” value came to 1.2 ± 1.8.

Turning to `CC(/C=C/c1cccc(Oc2ccc(F)cc2)c1)N(O)C(N)=O` (stereo unspecified), the “MBP+ mature oligodendrocyte number” value is 0.235.

For `O=c1c(O)c(-c2ccc(O)cc2O)oc2cc(O)cc(O)c12` [Morin Hydrate], the “MBP+ mature oligodendrocyte number” value is 3.08.

Take `O=c1c(O)c(-c2ccc(O)cc2O)oc2cc(O)cc(O)c12` [Morin]: the “MBP+ mature oligodendrocyte number” value came to 0.657.

In the case of `CC(=O)Nc1nc(C)c(-c2ccc(Cl)c(S(=O)(=O)NCCO)c2)s1`, the “MBP+ mature oligodendrocyte number” value was -4.97.

Regarding `O=S(=O)(O)c1cc(O)ccc1O` [Ethamsylate], the “MBP+ mature oligodendrocyte number” value is -0.692.

Take `CC(C)C[C@H](NP(=O)(O)O[C@H]1O[C@H](C)[C@@H](O)[C@H](O)[C@@H]1O)C(=O)N[C@@H](Cc1c[nH]c2ccccc12)C(=O)O` [Phosphoramidon disodium]: the “MBP+ mature oligodendrocyte number” value was -0.211.

Take `O=C1C[C@@H](c2ccc(O)cc2)Oc2cc(O)cc(O)c21` [Naringenin]: the “MBP+ mature oligodendrocyte number” value was 3.64.

For `CCC(=O)O[C@]1(C(=O)CCl)[C@@H](C)C[C@H]2[C@@H]3CCC4=CC(=O)C=C[C@]4(C)[C@@]3(F)[C@@H](O)C[C@@]21C` [Clobetasol propionate], the “MBP+ mature oligodendrocyte number” value came out at 12.8.

Take `CCOC(=O)[C@H](CCc1ccccc1)N[C@H]1CS[C@H](c2cccs2)CN(CC(=O)O)C1=O` [Temocapril HCl]: the “MBP+ mature oligodendrocyte number” value stood at 1.57.

On to `COc1ccc(F)c(F)c1C(=O)c1cnc(NC2CCN(S(C)(=O)=O)CC2)nc1N`, for which the “MBP+ mature oligodendrocyte number” value is less than -6.01.

Turning to `CCCCC(F)(F)[C@@]1(O)CC[C@H]2[C@@H](CC(=O)[C@@H]2CCCCCCC(=O)O)O1` [Lubiprostone], the “MBP+ mature oligodendrocyte number” value came out at 25.2.

Consider `CCOCC(O)COc1ccc(NC(=O)CC[S+](C)C)cc1` (stereo unspecified) [Suplatast Tosylate], for which the “MBP+ mature oligodendrocyte number” value was -0.0169.

Turning to `CN1CCN(CCOc2cc(OC3CCOCC3)c3c(Nc4c(Cl)ccc5c4OCO5)ncnc3c2)CC1` [Saracatinib (AZD0530)], the “MBP+ mature oligodendrocyte number” value is -6.44.

In the case of `Nc1ccc(S(=O)(=O)Nc2ccnn2-c2ccccc2)cc1` [Sulfaphenazole], the “MBP+ mature oligodendrocyte number” value was 1.15.

Consider `CCC(=O)c1c(O)cc(O)cc1O` [Flopropione], for which the “MBP+ mature oligodendrocyte number” value was 3.45.

`C=CC(=O)Nc1ccc2ncnc(Nc3cccc(Br)c3)c2c1`: the “MBP+ mature oligodendrocyte number” value was -5.68.

Take `CC1Cc2ccccc2N1NC(=O)c1ccc(Cl)c(S(N)(=O)=O)c1` (stereo unspecified) [Indapamide]: the “MBP+ mature oligodendrocyte number” value was determined as 3.04.

Regarding `CC(C)(C)[C@]1(O)CCN2C[C@H]3c4ccccc4CCc4cccc(c43)[C@@H]2C1` [(+)-Butaclamol hydrochloride], the “MBP+ mature oligodendrocyte number” value was found to be 0.274.

Regarding `CC(C)(C)[C@]1(O)CCN2C[C@H]3c4ccccc4CCc4cccc(c43)[C@@H]2C1` (racemic) [(±)-Butaclamol hydrochloride], the “MBP+ mature oligodendrocyte number” value amounted to 3.69.

On to `Nc1nc2[nH]c(=O)cnc2c(=O)[nH]1` [Isoxanthopterin], for which the “MBP+ mature oligodendrocyte number” value came out at 0.265.

As for `CO/N=C(\C(=O)N[C@@H]1C(=O)N2C(C(=O)O)=C(Cn3ccc(=N)n3CCO)CS[C@H]12)c1csc(N)n1` [Cefoselis Sulfate], the “MBP+ mature oligodendrocyte number” value was 0.982.

In the case of `Nc1ncnc2c1nc(Sc1ccc(Cl)cc1)n2C1OC2COP(=O)(O)O[C@@H]2[C@@H]1O` (stereo partly specified) [8-(4-Chlorophenylthio)-cAMP sodium], the “MBP+ mature oligodendrocyte number” value was -1.26.

Consider `CCCCCCCCCCCCCCCC(=O)O[C@@H]1[C@@H](O)[C@@H](O)[C@@H]([C@H](NC(=O)[C@@H]2C[C@@H](CCC)CN2C)[C@H](C)Cl)O[C@@H]1SC` [Clindamycin palmitate HCl], for which the “MBP+ mature oligodendrocyte number” value is -1.12.

Consider `O=C(O)C1=CCCNC1` [Guvacine hydrochloride], for which the “MBP+ mature oligodendrocyte number” value came to 0.502.

Take `CC(=O)Nc1ncc([N+](=O)[O-])s1` [Nithiamide]: the “MBP+ mature oligodendrocyte number” value was -0.185.

For the compound `O=C(NOCC1CC1)c1cc(Br)c(F)c(F)c1Nc1ccc(I)cc1Cl`, the “MBP+ mature oligodendrocyte number” value was -3.71.

As to `CCn1ccnc1CC1COc2ccccc2O1` (stereo unspecified) [Imiloxan hydrochloride], the “MBP+ mature oligodendrocyte number” value was determined as 0.461.

Turning to `COc1ccc(S(=O)(=O)N(C(C)=O)c2ccccc2/C=C/c2cc[n+]([O-])cc2)cc1`, the “MBP+ mature oligodendrocyte number” value is -4.97.

Consider `O=C1CC2(CCCC2)CC(=O)N1CCCCN1CCN(c2ncccn2)CC1` [Buspirone hydrochloride], for which the “MBP+ mature oligodendrocyte number” value is -0.119.

Consider `O=C1CC2(CCCC2)CC(=O)N1CCCCN1CCN(c2ncccn2)CC1` [Buspirone HCl], for which the “MBP+ mature oligodendrocyte number” value worked out at 3.62.

As for `CC[C@H]1OC(=O)[C@H](C)[C@@H](O[C@H]2C[C@@](C)(OC)[C@@H](O)[C@H](C)O2)[C@H](C)[C@@H](O[C@@H]2O[C@H](C)C[C@H](N(C)C)[C@H]2O)[C@](C)(O)C[C@@H](C)[C@@H]2N[C@@H](COCCOC)O[C@H]([C@H]2C)[C@]1(C)O` [Dirithromycin], the “MBP+ mature oligodendrocyte number” value is -3.48.

`Cc1cc(C)c(/C=C2\C(=O)Nc3ccccc32)[nH]1`: the “MBP+ mature oligodendrocyte number” value is -1.1.

For the compound `Cc1cc(C)c(/C=C2\C(=O)Nc3ccccc32)[nH]1` [Semaxanib (SU5416)], the “MBP+ mature oligodendrocyte number” value was found to be 2.33.

As for `O=C(NOC[C@H](O)CO)c1ccc(F)c(F)c1Nc1ccc(I)cc1F`, the “MBP+ mature oligodendrocyte number” value is -2.16 and -2.95.

Regarding `CC(C)c1cc(-c2ccc(F)c3ccccc23)nc(N)n1`, the “MBP+ mature oligodendrocyte number” value was found to be 6.85.

In the case of `c1ccc(C(NCc2cccnc2)(c2ccccc2)c2ccccc2)cc1`, the “MBP+ mature oligodendrocyte number” value was found to be 1.91.

As to `Cc1cccc(C#Cc2ccccc2)n1` [6-Methyl-2-(phenylethynyl)pyridine hydrochloride], the “MBP+ mature oligodendrocyte number” value is -0.715.

With `N[C@H](C(=O)O)c1cc(O)cc(O)c1` [(S)-3,5-Dihydroxyphenylglycine], the “MBP+ mature oligodendrocyte number” value worked out at 4.16.

Regarding `O=c1cc[nH]c(=S)[nH]1` [2-Thiouracil], the “MBP+ mature oligodendrocyte number” value worked out at 1.22.

As for `CC(C)(C)c1ccc(-c2nc3ccccc3[nH]2)cc1`, the “MBP+ mature oligodendrocyte number” value was 10.9.

As to `O=C(/C=C/c1ccc(CN(CCO)CCc2c[nH]c3ccccc23)cc1)NO` [LAQ824 (Dacinostat)], the “MBP+ mature oligodendrocyte number” value is less than -6.7.

`C=CCN1CCc2c(cc(O)c(O)c2Br)[C@@H](c2ccccc2)C1` [R(+)-6-Bromo-APB hydrobromide]: the “MBP+ mature oligodendrocyte number” value is -2.95.

On to `Oc1ccc(OCc2ccccc2)cc1` [Monobenzone], for which the “MBP+ mature oligodendrocyte number” value was -2.09.

As to `CCCn1c(=O)c2c(ncn2C)n(CCC)c1=O` [1,3-Dipropyl-7-methylxanthine], the “MBP+ mature oligodendrocyte number” value is 0.502.

As to `C[C@H]1C[C@H]2[C@@H]3CCC4=CC(=O)C=C[C@]4(C)[C@@]3(F)[C@@H](O)C[C@]2(C)[C@@]1(O)C(=O)CO` [Betamethasone], the “MBP+ mature oligodendrocyte number” value is 6.53 ± 6.4.

Turning to `CNC(=O)[C@H](Cc1c[nH]c2ccccc12)NC(=O)[C@@H](CC(=O)NO)CC(C)C` [Ilomastat (GM6001, Galardin)], the “MBP+ mature oligodendrocyte number” value was -0.1.

In the case of `Cc1ccc(Cl)c(Nc2ccccc2C(=O)O)c1Cl` [Meclofenamic acid sodium], the “MBP+ mature oligodendrocyte number” value came out at 0.147.

On to `O=C(NCCO[N+](=O)[O-])c1cccnc1` [Nicorandil], for which the “MBP+ mature oligodendrocyte number” value came out at 1.06.
